Experimental findings from paper PMC4336329 (PLoS ONE, 2015) are described below.

SMILES strings stand for the structures. Out of some 310,000 compounds screened, about 14,000 (4.5%) showed an effect of 50% or more. Effects have a minus sign here. The list shows a part of the results.
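Note: peak tail current of the secondary pulse compared with the same well before compound.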

In this experiment the target is human ether-à-go-go-related gene (hERG) potassium channel (human, UniProt Q12809). Nature of the experiment: primary screen, population patch clamp on CHO cells stably expressing hERG.
Sequence of human ether-à-go-go-related gene (hERG) potassium channel (Q12809 whole entry, looked up): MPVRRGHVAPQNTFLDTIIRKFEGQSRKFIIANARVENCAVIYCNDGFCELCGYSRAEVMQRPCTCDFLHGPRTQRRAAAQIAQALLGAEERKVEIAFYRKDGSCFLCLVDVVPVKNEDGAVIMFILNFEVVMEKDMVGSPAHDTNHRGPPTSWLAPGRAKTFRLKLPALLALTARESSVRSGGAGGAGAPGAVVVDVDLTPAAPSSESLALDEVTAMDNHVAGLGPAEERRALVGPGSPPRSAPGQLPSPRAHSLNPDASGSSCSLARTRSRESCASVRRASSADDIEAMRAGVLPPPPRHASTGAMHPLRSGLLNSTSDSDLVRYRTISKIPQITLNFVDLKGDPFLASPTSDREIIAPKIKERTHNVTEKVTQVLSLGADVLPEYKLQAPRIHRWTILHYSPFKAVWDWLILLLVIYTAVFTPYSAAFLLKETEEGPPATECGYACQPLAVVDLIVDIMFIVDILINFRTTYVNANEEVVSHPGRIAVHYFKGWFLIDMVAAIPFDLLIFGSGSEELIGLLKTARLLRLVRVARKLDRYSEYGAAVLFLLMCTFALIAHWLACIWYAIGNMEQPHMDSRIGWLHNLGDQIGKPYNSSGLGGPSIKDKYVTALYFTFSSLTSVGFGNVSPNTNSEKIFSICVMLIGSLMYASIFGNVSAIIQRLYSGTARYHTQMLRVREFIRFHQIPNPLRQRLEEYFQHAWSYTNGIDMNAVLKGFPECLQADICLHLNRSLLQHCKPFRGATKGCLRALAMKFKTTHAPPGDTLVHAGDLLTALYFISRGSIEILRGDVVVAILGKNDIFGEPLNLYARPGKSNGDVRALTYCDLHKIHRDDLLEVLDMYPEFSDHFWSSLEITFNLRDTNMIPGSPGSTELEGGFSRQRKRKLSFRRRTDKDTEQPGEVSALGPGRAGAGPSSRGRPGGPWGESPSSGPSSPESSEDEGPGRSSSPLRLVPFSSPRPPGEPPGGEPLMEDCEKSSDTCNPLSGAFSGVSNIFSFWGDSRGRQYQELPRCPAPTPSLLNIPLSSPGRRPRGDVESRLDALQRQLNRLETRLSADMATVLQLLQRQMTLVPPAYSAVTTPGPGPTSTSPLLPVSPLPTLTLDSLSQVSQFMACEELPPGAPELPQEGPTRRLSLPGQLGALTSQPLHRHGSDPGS
For `CN(Cc1ccccc1F)c1nc(-c2cccs2)nc2ccccc12`, the “hERG current change (%, negative = inhibition) at 10uM” value turned out to be 11.3%.

For the molecule `CCc1ccc(CN(C)C(=O)CCc2nnc(Cc3cccc(C)c3)o2)nc1`, the “hERG current change (%, negative = inhibition) at 10uM” value is listed as -46.2%.

In the case of `FC(F)(F)c1cccc(CON=C2CCN(c3ncc(C(F)(F)F)cc3Cl)CC2)c1`, the “hERG current change (%, negative = inhibition) at 10uM” value is reported as -3.51%.

Consider `CCc1ccc2[nH]c(=O)c(C(c3nnnn3CCOC)N3CCN(c4ccccc4F)CC3)cc2c1` (centres unmarked), for which the “hERG current change (%, negative = inhibition) at 10uM” value is -9.36%.

Turning to `Cc1ccc2cc(CN(c3cccc(C)c3C)S(=O)(=O)c3ccccc3)c(=O)[nH]c2c1`, the “hERG current change (%, negative = inhibition) at 10uM” value stood at 8.52%.

For the molecule `CCCN1CCN(C(=O)Cn2c(=O)oc3cc(S(=O)(=O)NCc4ccccc4)ccc32)CC1`, the “hERG current change (%, negative = inhibition) at 10uM” value is recorded as -6.53%.

On to `CCCCn1c(CCCNC(=O)CC)nc2ccccc21`, for which the “hERG current change (%, negative = inhibition) at 10uM” value is -37.3%.

Take `Cc1c(-c2ccccc2)nc2ccccc2c1C(=O)Oc1ccc([N+](=O)[O-])cc1`: the “hERG current change (%, negative = inhibition) at 10uM” value is -21.6%.

For `CC(C)(C)n1nnnc1C(c1cccc(C(F)(F)F)c1)N1CCOCC1` (centres unmarked), the “hERG current change (%, negative = inhibition) at 10uM” value was 1.38%.

As for `Cc1c(NC(=O)/C(C#N)=C/c2ccc(-c3cc(Cl)ccc3Cl)o2)c(=O)n(-c2ccccc2)n1C`, the “hERG current change (%, negative = inhibition) at 10uM” value was -5.54%.

For `Cc1ccccc1OCC(=O)Nc1ccncc1`, the “hERG current change (%, negative = inhibition) at 10uM” value came to 11.6%.

As to `CC(=O)Nc1ccc2nc(NS(=O)(=O)c3ccc(C)cc3)sc2c1`, the “hERG current change (%, negative = inhibition) at 10uM” value is 16.2%.

`Cc1cc(C)n(-c2ccc(Cl)c(C(=O)OCC(=O)N3CCCCC3C)n2)n1` (centres unmarked): the “hERG current change (%, negative = inhibition) at 10uM” value is given as -4.12%.

In the case of `CN(C)CCCNS(=O)(=O)c1ccc(Cl)s1`, the “hERG current change (%, negative = inhibition) at 10uM” value stood at 1.2%.

With `CC(C)(CNC(=O)c1ccc(NS(=O)(=O)c2ccc(F)c(F)c2)cc1)N1CCOCC1`, the “hERG current change (%, negative = inhibition) at 10uM” value is given as -5.36%.

Consider `CCOC(=O)N1CCN(C(=O)c2cc(-c3ccncc3)nc3ccccc23)CC1`, for which the “hERG current change (%, negative = inhibition) at 10uM” value is given as -48.4%.

In the case of `COC(=O)CCC(=O)NN1C(=O)c2ccccc2C1=O`, the “hERG current change (%, negative = inhibition) at 10uM” value turned out to be 14%.

On to `CCN(CC)S(=O)(=O)c1ccc(OC)c(NC(=O)CCc2c(C)noc2C)c1`, for which the “hERG current change (%, negative = inhibition) at 10uM” value is -6.33%.

Consider `CCC(C)Sc1ccc([C@H]2N[C@@](Cc3ccccc3)(C(=O)OC)[C@H]3C(=O)N(CC)C(=O)[C@@H]23)cc1OC.O=C(O)C(F)(F)F` (some centres unmarked), for which the “hERG current change (%, negative = inhibition) at 10uM” value came to 12.5%.

Consider `CC(=O)N1CCc2cc(S(=O)(=O)NC3CCCCC3)ccc21`, for which the “hERG current change (%, negative = inhibition) at 10uM” value is 10.9%.

On to `CC1=C(C(=O)NC2CCCc3c2cnn3-c2cccc(C)c2C)OCCO1` (centres unmarked), for which the “hERG current change (%, negative = inhibition) at 10uM” value was found to be 11.8%.

For `COc1ccccc1NC(=O)c1ccc(NC(=O)COC(=O)c2ccc(O)cc2)cc1`, the “hERG current change (%, negative = inhibition) at 10uM” value was 3.74%.

As for `CC(C)(C)NC(=O)NC(=O)COC(=O)Cc1ccc(Cl)cc1Cl`, the “hERG current change (%, negative = inhibition) at 10uM” value was 4.09%.

With `CCOC(=O)/C(=C/C=C1\Sc2ccccc2N1CC)C(C)=O`, the “hERG current change (%, negative = inhibition) at 10uM” value is 4.94%.

`COc1ccc(CN2CCN(CCC(C)C)C(CCO)C2)cc1Cn1cccn1` (centres unmarked): the “hERG current change (%, negative = inhibition) at 10uM” value is given as -48.1%.

In the case of `CC(C)Cn1c(SCC(=O)N2CCN(S(=O)(=O)c3ccccc3)CC2)nc2ccccc21`, the “hERG current change (%, negative = inhibition) at 10uM” value was 0.539%.

As for `CCCc1cc(=O)[nH]c(SCC(=O)Nc2cccc3ccccc23)n1`, the “hERG current change (%, negative = inhibition) at 10uM” value is reported as -10.7%.

In the case of `O=C(NC1CCCc2c1cnn2-c1ccc(F)cc1F)c1ccccn1` (centres unmarked), the “hERG current change (%, negative = inhibition) at 10uM” value is 1.82%.

Consider `CCn1c(=O)[nH]c(=O)c2c(N)c(C(=O)c3cc(F)ccc3F)sc21`, for which the “hERG current change (%, negative = inhibition) at 10uM” value is reported as -57.4%.

On to `Cc1cccc(-c2nnc(SCC(=O)NCc3ccc4c(c3)OCO4)n2C)c1`, for which the “hERG current change (%, negative = inhibition) at 10uM” value is -22.5%.

On to `O=C(COc1ccc(Cl)cc1Cl)N1CCCN(C(=O)COc2ccc(Cl)cc2Cl)CC1`, for which the “hERG current change (%, negative = inhibition) at 10uM” value is -47.2%.

With `COC(=O)C1=C(c2ccc(F)cc2OCc2ccccc2)C[C@@H]2CC[C@H]1N2C(=O)NCc1ccc(OC)c(OC)c1`, the “hERG current change (%, negative = inhibition) at 10uM” value is -2.13%.

For `CCOc1ccc(N2CC(C(=O)NCc3ccc(C)n3C)CC2=O)cc1` (centres unmarked), the “hERG current change (%, negative = inhibition) at 10uM” value is reported as -7.48%.

As to `CCc1cccc(NC(=O)CCS(=O)(=O)c2ccc(Br)cc2)c1`, the “hERG current change (%, negative = inhibition) at 10uM” value was determined as 5.49%.

As for `COc1ccc(C(=O)CC2OC(=O)c3c2ccc(OC)c3OC)cc1` (centres unmarked), the “hERG current change (%, negative = inhibition) at 10uM” value came out at 0.564%.

As for `O=C(NCCOc1ccccc1Cl)c1ncn[nH]1`, the “hERG current change (%, negative = inhibition) at 10uM” value was -2.83%.

Consider `COc1ccc(S(=O)(=O)n2ccnc2)c2cccnc12`, for which the “hERG current change (%, negative = inhibition) at 10uM” value is listed as 19.4%.

`CCN(CC)C(=O)Cn1cc(C(=O)C(=O)N(C)C2CCN(C)CC2)c2ccccc21`: the “hERG current change (%, negative = inhibition) at 10uM” value came out at 19.4%.

As for `COC(=O)c1c(-c2cccc3ccccc23)csc1NC(=O)Cc1ccc(OC)c(OC)c1`, the “hERG current change (%, negative = inhibition) at 10uM” value is reported as 5.18%.

For `CCOC(=O)c1sc(NC(=O)c2ccc(S(=O)(=O)N(C)C)cc2)cc1C`, the “hERG current change (%, negative = inhibition) at 10uM” value is 14.1%.

In the case of `C=CCSC1=C(C#N)C(c2cc(Br)c(O)c(OC)c2)CC(=O)N1` (centres unmarked), the “hERG current change (%, negative = inhibition) at 10uM” value is reported as -14.2%.

Regarding `Cc1ccc(S(=O)(=O)NCCC(=O)N2CCN(C/C=C/c3ccccc3)CC2)cc1`, the “hERG current change (%, negative = inhibition) at 10uM” value is -49.5%.

Consider `CCOC(=O)N1CCC(N2Cc3cccc(C(=O)Nc4ccc(F)cc4)c3C2=O)CC1`, for which the “hERG current change (%, negative = inhibition) at 10uM” value was -55.3%.

For the molecule `Cc1ccc(NC(=O)C(C)Sc2nnc(-c3cccnc3)o2)cc1` (centres unmarked), the “hERG current change (%, negative = inhibition) at 10uM” value is 11.9%.
